# Test results: PubChem BioAssay AID485344 (National Center for Advancing Translational Sciences (NCATS), 2010)
# Screen size: about 340,000 compounds; about 6,900 (2%) were called active. Cut-off read from the data, not from the text of the source: active = inhibition above about 30%; inactive = below that, where a call was filed. This is a selection; strong and weak results do not stand in their true shares. Entries without a call were filed so in the source.
# Target: D(2) dopamine receptor (Homo sapiens) (UniProt P14416)
# Test: HTS Assay for Allosteric Antagonists of the Human D2 Dopamine Receptor: Primary Screen for Antagonists; note: 0% is about no effect
# Details: HEK293 TREx D2 cells, calcium flux, dopamine EC80; at 10 µM; stronger effect = higher value
# Summary of the method: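 Antagonism is scored as inhibition of an EC80 dopamine-evoked calcium signal in a force-coupled, tetracycline-inducible HEK293 T-REx D2 line, with compound present 180 s before agonist.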
# UniProt P14416, sequence (P14416 whole entry, looked up): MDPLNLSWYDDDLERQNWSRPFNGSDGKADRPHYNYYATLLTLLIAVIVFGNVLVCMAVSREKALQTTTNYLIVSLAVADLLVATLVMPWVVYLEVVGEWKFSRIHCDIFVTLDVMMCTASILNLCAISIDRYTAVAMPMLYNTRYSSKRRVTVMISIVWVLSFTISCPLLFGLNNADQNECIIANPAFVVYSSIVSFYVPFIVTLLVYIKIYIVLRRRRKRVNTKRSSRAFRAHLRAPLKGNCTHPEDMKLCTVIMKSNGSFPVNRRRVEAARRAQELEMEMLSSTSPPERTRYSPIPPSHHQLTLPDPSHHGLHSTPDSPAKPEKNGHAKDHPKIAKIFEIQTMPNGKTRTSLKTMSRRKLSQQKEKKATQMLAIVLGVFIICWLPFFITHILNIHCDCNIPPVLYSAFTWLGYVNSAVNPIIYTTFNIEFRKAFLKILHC
row,Structure (SMILES),inhibition
1,COCCNC(=O)c1ccc2c(=O)n(CCOC)c(SCC(=O)c3c[nH]c4ccccc34)nc2c1,5.04%
2,Cc1nc2cc(NC(=O)c3cccc(S(C)(=O)=O)c3)ccc2o1,active: 33.4%
3,Cc1cccc(CCNC(=O)CCc2c(C)nc3ncnn3c2C)c1,-14.8%
4,COc1cccc(CN2C(=O)C3(SCC(=O)N3c3ccc(C(C)C)cc3)c3ccccc32)c1 (configuration not stated),-4.46%
5,NC(=O)CSc1nnnn1-c1cccc(O)c1,0.184%
6,CCc1cccc(NC(=O)c2oc3ccc4c(c3c2C)C(=O)CC(C)(C)O4)c1,15.3%
7,Cn1c(SCc2ccccc2Cl)nc2c([nH]c3ccccc32)c1=O,-8.55%
8,Cc1ccc(C(=O)NC(=S)Nc2ccc3[nH]c(=O)[nH]c3c2)cc1,active: 46%
9,CCOc1ccc(NS(=O)(=O)c2ccc3[nH]cc(C(=O)N4CCCCCC4)c(=O)c3c2)cc1,8.04%
10,CCOC(=O)c1ccc(N2C(=O)Cc3cc(OCC)c(OCC)cc3C2c2ccccc2)cc1 (configuration not stated),4.49%
11,O=C(c1ccc2c(c1)OCCO2)N(Cc1cccnc1)c1nc2c(F)cc(F)cc2s1,-14.2%
12,O=C(Nc1cccc(F)c1)NC1CCN(Cc2ccccc2)CC1,active: 88.6%
13,COC(=O)c1ccc(Cn2nc(-c3ccc(C)cc3)ccc2=O)cc1,-6.06%
14,O=C(COc1ccc(F)cc1)Nc1ccccc1OCc1cc(=O)n2ccccc2n1,-1.87%
15,O=C(c1ccco1)N1CCN(CC(O)COc2ccc3oc4ccccc4c3c2)CC1 (configuration not stated),active: 39.9%
16,CCOC(=O)C1CCCN(C/C=C/c2ccccc2)C1 (configuration not stated),active: 30.5%
17,CCC1CCc2nc3sc(C(=O)Nc4cccc(C(F)(F)F)c4)c(N)c3cc2C1 (configuration not stated),-1.92%
18,CCc1nn2c(=O)cc(COC(=O)c3ccc(NC(=O)C4CCCCC4)cc3)nc2s1,0.197%
19,COc1ccc(-c2noc(-c3ccc(NC4CCCCC4)c([N+](=O)[O-])c3)n2)cc1,13.4%
20,OC(CN1CCN(c2ccccc2)CC1)c1c[nH]c2ccccc12 (configuration not stated),active: 54.2%
21,CCCc1cc(=O)oc2cc(C)c3c(C(C)(C)C)coc3c12,-0.972%
22,COc1ccc(S(=O)(=O)Nc2cc3c(cc2N2CCOCC2)n(C)c(=O)n3C)cc1,7.98%
23,O=C(CCn1c(=O)c2cccn2c2cccnc21)NCc1ccccc1F,19.1%
24,COc1cccc(NC(=O)c2ccc3[nH]c(C)cc(=O)c3c2)c1,3.49%
25,Cc1nn(-c2ccccc2)c2c1N(CCCC(=O)NCc1ccccc1)C(=O)CS2,-0.422%

row,Structure (SMILES),inhibition
1,O=C(NCCCN1CCN(c2ccccc2)CC1)Nc1ccccc1C(F)(F)F,active: 74.6%
2,O=C1CN(C(=O)Nc2ccccc2Cl)C(c2ccccc2)c2c(sc3c2CCCC3)N1 (configuration not stated),14.9%
3,COc1ccc(-c2cc(C(=O)NCCc3ccc(OC)c(OC)c3)c3ccccc3n2)cc1,10%
4,COc1ccc(NC(=O)C(C)Sc2cc(-c3ccccc3)nc(C)n2)cc1Cl (configuration not stated),-14.8%
5,CCc1cc2c(cc3c(=O)n(CC(=O)NC4CCCCC4)ncn32)s1,-4.55%
6,Cc1ccc(OCC(=O)Nc2ccc3[nH]c(=O)sc3c2)cc1,-23.5%
7,CCOc1ccc(N(C(C)C(=O)NCCSc2ccc(C)cc2)S(C)(=O)=O)cc1 (configuration not stated),2.31%
8,COc1cccc(C(c2sc3nc(-c4ccco4)nn3c2O)N2CCN(c3ccccc3F)CC2)c1 (configuration not stated),11.9%
9,Cc1cc(C)cc(NC(=O)C(=O)NCC(c2cccnc2)N2CCN(c3ccccc3)CC2)c1 (configuration not stated),18.2%
10,CCCCn1cc(S(=O)(=O)c2ccc(CC)cc2)c(=O)c2cc(F)c(N3CCOCC3)cc21,-4.94%
11,c1csc(C(c2nnnn2C2CCCC2)N2CCCC3(CCCCC3)C2)c1 (configuration not stated),active: 30.8%
12,COc1ccc(-c2ccc(CCC(=O)O)n2CC(=O)Nc2cccc(Cl)c2C)cc1,-19.8%
13,Cc1c(C(=O)N(Cc2ccc(N(C)C)cc2)Cc2ccco2)oc2cc(Br)ccc12,-6.62%
14,Cn1cc(C(=O)NCCc2ccccc2)c(=O)c2cc(S(=O)(=O)N3CCCCCC3)ccc21,-3.18%
15,O=C(CN1C(=O)CC(c2ccco2)Sc2ccccc21)Nc1ccc(Br)cc1 (configuration not stated),7.5%
16,COc1ccccc1-c1noc(-c2ccc(NCc3cccnc3)c([N+](=O)[O-])c2)n1,12.5%
17,CCCSc1nnc2c(n1)OC(c1ccc(OCC(=O)O)cc1)Nc1ccccc1-2 (configuration not stated),8.22%
18,CCCNC(=O)C1CCN(Cc2cc3ccccc3n2Cc2ccccc2)CC1,20.1%
19,CC1(C)CC(=O)c2cc(-c3nc(-c4ccc(Cl)cc4)cs3)c(=O)n(-c3cccc(F)c3)c2C1,-16.1%
20,CN(C)C=NC(=O)c1cc(C(=O)c2ccccc2)c[nH]1,active: 33.2%
21,COc1cc(C)ccc1OCCSc1nc2ccc(NC(=O)c3ccc(C)cc3)cc2s1,-5.33%
22,Cc1oc2ncnc(N3CCOCC3)c2c1C(=O)NCc1ccc(Cl)cc1,-1.64%
23,N#C/C(=C\c1ccc(-c2cccc(Cl)c2)o1)C(=O)Nc1cccc(C(F)(F)F)c1,6.68%
24,Fc1ccc(N2CCN(c3ncnc4[nH]ncc34)CC2)cc1,-4.54%
25,CC(C)OCCCNC(=O)CN1C(=O)c2ccccc2Sc2ncccc21,6.08%

row,Structure (SMILES),inhibition
1,Cc1ccccc1N=Cc1cc2c(cc1O)OC(N)=C(C#N)C2c1ccccc1 (configuration not stated),active: 33.1%
2,O=C(Nc1cccc2c1CCCC2)N1CCOc2ccc(Cl)cc21,13.3%
3,CCCC(=O)Nc1ccc2nc(SCC(=O)N3CCOCC3)sc2c1,15.8%
4,CCN1CCN(C(c2ccc(F)cc2)c2sc3nc(-c4ccco4)nn3c2O)CC1 (configuration not stated),14.9%
5,Cc1ccc(S(=O)(=O)N(CC(=O)NCCSc2ccc(Cl)cc2)c2cccc(Cl)c2)cc1,0.95%
6,Cc1ccc(S(=O)(=O)CCC(=O)N2CCN(c3nc4c(C)c(C)ccc4s3)CC2)cc1,-6.05%
7,COc1ccc(N2CCN(C(c3ccc(F)cc3)c3sc4nc(-c5ccco5)nn4c3O)CC2)cc1 (configuration not stated),-6.56%
8,Cc1ccc(OCC(=O)Nc2nonc2-c2ccc(Br)cc2)cc1,14%
9,CCC(C)NC(=O)c1cnn(-c2cccc(F)c2)c1-n1cccc1 (configuration not stated),2.51%
10,CC(=O)N1CCCC1c1nc2ccccc2n1Cc1ccccc1F (configuration not stated),-3.41%
11,Cc1cccc(C(C)C)c1NC(=O)c1ccc2c(c1)CCCN2S(C)(=O)=O,-1.06%
12,CCCn1cc(S(=O)(=O)c2cccc(Cl)c2)c(=O)c2cc(F)c(N3CCCC3)cc21,5.05%
13,O=[N+]([O-])c1cccc(OCCN2CCC(Cc3ccccc3)CC2)c1,active: 67.4%
14,Cc1cc(Cl)ccc1OCC(=O)N(Cc1ccc(N(C)C)cc1)C1CCS(=O)(=O)C1 (configuration not stated),-11.6%
15,CCOC(=O)c1cc(-c2ccc(C)cc2)n(CC(=O)Nc2ccc(OC)cc2OC)c1C,12.1%
16,Cc1ccc(NC(=O)CSc2nccn2C2CCCC2)cc1Cl,-12.7%
17,COc1cc(C(=O)Nc2ccc(Cl)c([N+](=O)[O-])c2)cc(OC)c1OC,active: 36.7%
18,CCc1nnc2c(Nc3ccccc3Br)nc3ccccc3n12,-8.72%
19,Cc1nn(CCC(=O)Nc2ccccc2Br)c(=O)c2nn(-c3ccccc3)c(C)c12,-14.7%
20,Cc1cccc(CCNC(=O)CCS(=O)(=O)c2cc3c(cc2C)NC(=O)CO3)c1,12.4%
21,CCOC(=O)N1CCC2(CC1)OC(=O)C(C)=C2C(=O)NCc1ccccc1OC,-7.72%
22,Cn1cnc(S(=O)(=O)N2CCC(C(=O)Nc3ccc(Cl)c(C(F)(F)F)c3)CC2)c1,-8.67%
23,CCc1cccc(NS(=O)(=O)c2ccc3c(c2)N(CC(=O)OC)C(=O)CS3)c1,-8.22%
24,COc1ccccc1N1CCN(C(=O)CNS(=O)(=O)c2ccc(Br)s2)CC1,7.41%
25,COC(=O)c1cc(C)nc2c1c(=O)nc(SCc1ccccc1Cl)n2C1CC1,7.27%

row,Structure (SMILES),inhibition
1,Cc1ccc(OCC(=O)Nc2ccc3nn(-c4ccc(C)cc4)nc3c2)cc1,-0.0186%
2,O=C1NCCN1c1ncc([N+](=O)[O-])s1,active: 54%
3,CN1CCc2c(sc3c2C(=O)NC(c2ccc4c(c2)OCO4)N3)C1 (configuration not stated),active: 32.2%
4,COc1ccc(C(=O)NNC(=O)COc2ccc(Cl)cc2C)cc1S(=O)(=O)N1CCOCC1,active: 32.6%
5,CC(C)N(Cc1nc(-c2ccc(Cl)cc2)no1)C(=O)c1ccco1,10.5%
6,CCN1CCCC1CNC(=O)c1cc(NC(C)=O)c(N(C)C)cc1OC (configuration not stated),active: 69.3%
7,COc1ccc(-n2ccn(CC(=O)Nc3ccc(C)cc3C)c(=O)c2=O)cc1,8.84%
8,COc1ccc(CNC(=O)c2sc3nc4n(c(=O)c3c2C)CCC4)cc1,-23.8%
9,CSCCC(NS(=O)(=O)c1ccccc1F)C(=O)N1CCCCCC1 (configuration not stated),active: 43.6%
10,CCCc1nnc(NC(=O)C(CC)Sc2nnc3c4ccccc4n(C)c3n2)s1 (configuration not stated),0.516%
11,COc1ccc2c(c1)c1c(c(=O)n(-c3cccc(C)c3)c(=O)n1CC(=O)NCc1ccc(C)cc1)n2C,9.89%
12,CC(C)c1ccccc1NC(=O)Cn1cnc2c1c(=O)n(C)c(=O)n2C,11.6%
13,COc1ccc(CCNC(=O)CS(=O)(=O)Cc2nc(-c3cccc(Cl)c3)oc2C)cc1OC,-4.37%
14,COc1ccc(-c2cc(C(=O)NCCc3ccccc3)c3c(-c4ccc(Cl)cc4)[nH]nc3n2)cc1,6.96%
15,COc1ccc(CNC(=O)c2cccn2-c2nnc(N3CCCCC3)s2)c(OC)c1,18.8%
16,Cc1cccc(N2C(=O)N(Cc3cccc(C#N)c3)c3ccccc3S2(=O)=O)c1,7.73%
17,Cc1ccc(CSc2nc3ccncc3n2Cc2nc(-c3ccccc3C)oc2C)cc1,-2.23%
18,O=C(CCS(=O)(=O)c1cc(Br)cc2c1N(C(=O)C1CC1)CC2)N1CCN(c2cccc(C(F)(F)F)c2)CC1,12%
19,O=C(Cn1c(=O)n(Cc2ccc(C(=O)NCc3ccc4c(c3)OCO4)cc2)c(=O)c2ccccc21)Nc1ccccc1F,14.3%
20,CCCNC(=O)c1c(NC(=O)c2ccccc2)sc2c1CCC(C(C)(C)C)C2 (configuration not stated),-6.55%
21,CCOC(=O)c1c(-c2ccccc2)oc2ccc(OCc3cccc(Br)c3)cc12,10.2%
22,O=C(Cn1cc(C(=O)c2cccs2)c2ccccc21)Nc1ccc(Br)cc1,4.97%
